Test results as given in PubChem BioAssay AID904 (National Center for Advancing Translational Sciences (NCATS), 2007).
About 530 (0.96%) of roughly 55,000 compounds were called active. Inconclusive means that the source gave no clear call. Such entries were picked first, then a sample of the others. Calls come from the whole dose curve; as a rule, active = well fitted cell-killing curve with a large enough effect; inconclusive = small, poorly fitted or top-dose-only effect; inactive = no such curve, though single readings can be large or run the other way. Potencies of inconclusive entries are doubtful fits and often do not repeat.
Potency is the fitted concentration of half-maximal effect; tags give direction and shape of the fitted curve.

Assay: qHTS Screen for Compounds that Selectively Target Cancer Cells with p53 Mutations: Cytotoxicity of p53 Null Cells at the Nonpermissive Temperature; note: nearly all actives have a fitted effect of over 50% in size;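 for activity, negative = cell killing: 0% = DMSO only and -100% = full killing by 100 µM tamoxifen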
Conditions: H1299 p53-null (neo) cells, 39C, ATPlite viability, 24 h; activity, negative = cell killing: at 46.1 µM (top of the series)
Outline: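 Cells seeded at 600/well, 37C overnight. Compound added (up to 46 uM), plates shifted to 39C for 24 hr. ATPlite added, luminescence read after 20 min at room temperature.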
With `CCCS(=O)(=O)NCCc1csc2nc(-c3ccc(OC)cc3)nn12` the Potency was inconclusive: 0.141 µM [cytotoxic, full curve, poor fit].
For `COc1cccc(NC(CNS(=O)(=O)c2ccc(C)cc2)c2ccccc2)c1` (centres undefined), the Potency was inconclusive: 25.1 µM [cytotoxic, single point].
In the case of `COc1ccc(-c2ccc(CCC(=O)O)n2-c2cc(Cl)ccc2O)cc1`, the Potency is reported as inconclusive: 31.6 µM [cytotoxic, single point].
With `COc1ccccc1-c1cc(C(F)(F)F)nc(S(=O)(=O)CCCC(=O)Nc2ccc(F)cc2F)n1` the Potency was inconclusive: 10 µM [cytotoxic, single point].
In the case of `CCOc1ccc(NC(=O)C(C)Sc2nc3ncccc3o2)cc1` (centres undefined), the Potency is reported as inconclusive: 31.6 µM [cytotoxic, single point].
For `O=C(Nc1ccc(F)cc1F)N1CCN(c2ccc(Cl)c(Cl)c2)CC1`, the Potency was inconclusive: 12.6 µM [cytotoxic, single point].
In the case of `COc1ccc(-c2nc(-c3ccccc3)c(-c3ccc(F)cc3)[nH]2)c(OC)c1C`, the Potency is reported as inconclusive: 11.2 µM [cytotoxic, single point].
In the case of `CC1CN(C(=O)CCC(=O)NCc2ccccc2)c2cc(Cl)ccc2O1` (centres undefined), the activity, negative = cell killing is reported as inconclusive: -30.5% [cytotoxic].
For `Cc1ccc(CN(C(=O)c2ccccc2[N+](=O)[O-])c2ccccn2)cc1`, the Potency was inconclusive: 0.1 µM [cytotoxic, full curve, poor fit].
With `COc1ccccc1NC(=O)CSc1oc(-c2ccc(F)cc2)nc1S(=O)(=O)c1ccc(Br)cc1` the Potency was inconclusive: 0.02 µM [cytotoxic, full curve].
In the case of `Cc1cc(N2CCN(C)CC2)nc2ccc(NC(=O)Nc3ccc(F)cc3)cc12`, the Potency is reported as “inactive”.
For `O=C(CCC(=O)N1CCOc2ccccc21)NCc1cccs1`, the Potency was inconclusive: 20 µM [cytotoxic, single point].
With `CCOC(=O)c1ccc(NC(=O)c2noc3c2CCCC3)cc1` the Potency was inconclusive: 11.2 µM [cytotoxic, single point].
With `COc1ccc(OC(=O)c2cc(-c3ccc4c(c3)OCCO4)on2)cc1` the Potency was inconclusive: 20 µM [cytotoxic, partial curve, poor fit].
For `CCOc1ccc(NC(=O)Cn2c(=O)nc(-c3ccccc3)c3ccccc32)cc1`, the Potency was inconclusive: 0.316 µM [cytotoxic, full curve, poor fit].
For `Cc1ccc(OCC(=O)OCc2cc(=O)n3ccsc3n2)cc1C`, the Potency was inconclusive: 12.6 µM [cytotoxic, partial curve].
With `COc1ccc(C(=O)Nc2ccc(-c3nc4cc(C)ccc4o3)c(O)c2)cc1` the Potency was “inactive”.
With `CCN1CCC(N(Cc2ccc(F)cc2)C(=O)Nc2ccc(C)c(F)c2)CC1` the Potency was inconclusive: 0.0316 µM [cytotoxic, full curve, poor fit].
For `CC(=O)Nc1ccc(S(=O)(=O)N2CCC(n3c(C)nc4cccnc43)CC2)cc1`, the Potency was “inactive”.
With `COc1ccc(-n2nnc(-c3nc(-c4ccc5c(c4)OCO5)no3)c2C)cc1Cl` the Potency was inconclusive: 0.0398 µM [cytotoxic, full curve, poor fit].
In the case of `O=C(c1cnn(-c2ccc(F)cc2)c1-n1cccc1)N1CCN(c2cccc(Cl)c2)CC1`, the Potency is reported as inconclusive: 3.98 µM [cytotoxic, single point].
With `CC(C)c1ccc(C(=O)CC2(O)C(=O)N(CCc3ccccc3)c3ccc(Cl)cc32)cc1` (centres undefined) the Potency was active: 12.6 µM.
In the case of `O=C(CSc1nnc2[nH]c(=O)cc(-c3ccccc3)n12)Nc1ccccc1C(F)(F)F`, the Potency is reported as inconclusive: 0.224 µM [cytotoxic, full curve, poor fit].
In the case of `Cc1cc(N2CCN(C)CC2)nc2ccc(NC(=O)c3ccccc3F)cc12`, the Potency is reported as inconclusive: 11.2 µM [cytotoxic, partial curve].
With `O=C(CCS(=O)(=O)c1cc2c(cc1Cl)NC(=O)CO2)NCc1ccccc1` the Potency was inconclusive: 0.0126 µM [cytotoxic, partial curve].
For `CCc1ccc2nc(N3CCC(C(=O)NCCC(C)C)CC3)sc2c1`, the Potency was active: 6.31 µM.
In the case of `Cc1cc(S(=O)(=O)NCCc2csc(-c3cccc(F)c3)n2)ccc1F`, the Potency is reported as inconclusive: 5.01 µM [cytotoxic, partial curve, poor fit].
With `COc1cccc2cc(-c3nc4ccc(C)cc4[nH]3)c(=O)oc12` the Potency was inconclusive: 2.51 µM [cytotoxic, partial curve].
With `CCc1ccc(CNC(=O)c2cc3cc4ccc(OC)cc4nc3o2)cc1` the Potency was “inactive”.
In the case of `CC1=C(C(=O)OC2CCCCCC2)C(c2ccc(Cl)cc2Cl)CC(=O)N1` (centres undefined), the Potency is reported as inconclusive: 31.6 µM [cytotoxic, single point].
With `CCOC(=O)c1c(-c2ccc(F)cc2)csc1NC(=O)CCN1C(=O)c2ccccc2C1=O` the Potency was inconclusive: 0.501 µM [cytotoxic, full curve].
With `Cc1ccccc1NC(=O)CCn1nc(-c2ccc(Cl)cc2)c2ccccc2c1=O` the Potency was inconclusive: 5.01 µM [cytotoxic, single point].
For `COc1ccc(-c2csc3nc(-c4ccc(C)cc4)oc(=O)c23)cc1OC`, the Potency was inconclusive: 10 µM [cytotoxic, partial curve].
In the case of `Cc1ccccc1Nc1c(-c2c[nH]c3ccccc23)nc2cccc(C)n12`, the Potency is reported as inconclusive: 3.98 µM [cytotoxic, partial curve, poor fit].
In the case of `CCn1c2c(c(=O)n3ncc(C(=O)Nc4ccc(Cl)cc4C)c13)CN(Cc1ccc(OC)cc1)CC2`, the Potency is reported as inconclusive: 2 µM [cytotoxic, partial curve, poor fit].
In the case of `CCOCCc1nn2c(=O)cc(COC(=O)c3ccccc3NC(=O)c3ccc(C)cc3)nc2s1`, the Potency is reported as inconclusive: 1.58 µM [cytotoxic, full curve].
For `Clc1cccc(-n2ncc3c(NC4CCCCCC4)ncnc32)c1`, the Potency was inconclusive: 11.2 µM [cytotoxic, partial curve].
In the case of `Cc1cc(S(=O)(=O)Nc2ccc3oc4c(c3c2)CCCC4)ccc1Cl`, the Potency is reported as active: 17.8 µM.
In the case of `COc1ccc(NC(=O)C2Cc3ccccc3CN2S(=O)(=O)c2ccccc2)cc1OC` (centres undefined), the Potency is reported as inconclusive: 0.005 µM [cytotoxic, full curve, poor fit].
In the case of `COc1ccc(NC(=O)c2cccs2)cc1`, the Potency is reported as “inactive”.
With `O=S(=O)(NCc1ccc(F)cc1)c1ccc2[nH]c3c(c2c1)CCCC3` the Potency was inconclusive: 17.8 µM [cytotoxic, partial curve].
With `Cc1c(Cl)cccc1NC(=O)c1oc2ccc(S(=O)(=O)N3CCC4(CC3)OCCO4)cc2c1C` the Potency was “inactive”.
In the case of `Cc1ccc(NC(=O)c2cnc3cc(C)ccn3c2=O)c(C)c1`, the Potency is reported as “inactive”.
For `CCCCNc1oc(-c2ccc(COc3ccccc3C)o2)nc1C#N`, the Potency was inconclusive: 14.1 µM [cytotoxic, partial curve].
In the case of `CC(NC(=S)Nc1ccccc1)C1COc2ccccc2O1` (centres undefined), the Potency is reported as “inactive”.
In the case of `COc1ccc(OC)c(NC(=O)Cn2c(=O)n(Cc3ccco3)c(=O)c3cc(OC)c(OC)cc32)c1`, the Potency is reported as “inactive”.
For `CCCN(CCC)C(=O)CSc1c2c(nc3ccc(Cl)cc13)CCCC2`, the Potency was inconclusive: 11.2 µM [cytotoxic, partial curve].
In the case of `COc1ccccc1OCC(=O)N(Cc1cccs1)C1CCS(=O)(=O)C1` (centres undefined), the Potency is reported as inconclusive: 1 µM [cytotoxic, full curve, poor fit].
In the case of `Cc1ccc(S(=O)(=O)c2nc(-c3cccs3)oc2SCC(=O)Nc2cc(C)cc(C)c2)cc1`, the Potency is reported as inconclusive: 12.6 µM [cytotoxic, single point].
For `COc1cc(/C=N/Nc2nc3ccccc3[nH]2)cc(OC)c1O`, the Potency was inconclusive: 15.8 µM [cytotoxic, single point].
For `CCOC(=O)c1ccc(NC(=O)c2sc3ccccc3c2Cl)cc1`, the Potency was “inactive”.
With `COc1ccc(C)cc1NC(=O)c1cc2ccccn2n1` the Potency was inconclusive: 17.8 µM [cytotoxic, partial curve].
In the case of `CCc1nnc(SCc2ccc(F)cc2Cl)c2cc3sccc3n12`, the Potency is reported as inconclusive: 0.794 µM [cytotoxic, partial curve].
With `CCc1ccc(NS(=O)(=O)c2ccc3[nH]cc(C(=O)NC4CCCC4)c(=O)c3c2)cc1` the Potency was inconclusive: 20 µM [cytotoxic, single point].
With `O=C1CCSC2(C(=O)N(Cc3ccc(F)cc3)c3ccccc32)N1c1ccccc1` (centres undefined) the Potency was inconclusive: 0.0631 µM [cytotoxic, full curve, poor fit].
For `Cc1cc(C)n(-c2nc3ccccc3nc2Nc2cccc(C(F)(F)F)c2)n1`, the Potency was inconclusive: 0.01 µM [cytotoxic, full curve, poor fit].
For `COc1ccc(C2C(C(=O)Nc3ccccc3)=C(C)Nc3nc(-c4ccccc4)nn32)cc1OC` (centres undefined), the Potency was inconclusive: 35.5 µM [cytotoxic, single point].
In the case of `Cc1cc(C)c2c(CC(=O)Nc3nnc(C(C)C)s3)coc2c1`, the Potency is reported as “inactive”.
With `CCc1ccc(NC(=O)c2cc3ccccn3n2)cc1` the Potency was active: 7.94 µM.
With `O=C(CSc1nc2cc3ccccc3cc2[nH]1)Nc1cccc(C(F)(F)F)c1` the Potency was inconclusive: 12.6 µM [cytotoxic, partial curve].
In the case of `COCCNC(=O)CSc1nc(-c2ccc(F)cc2)[nH]c1-c1ccc(Cl)cc1`, the Potency is reported as inconclusive: 31.6 µM [cytotoxic, single point].
With `CC(CNC(=O)Cn1ncc2c3ccccc3n(Cc3cccc(Cl)c3)c2c1=O)c1ccccc1` (centres undefined) the Potency was inconclusive: 15.8 µM [cytotoxic, partial curve].
With `CCCCN(C)CCNC(=O)C1CCN(c2nc3ccc(CC)cc3s2)CC1` the Potency was active: 3.16 µM.
For `COc1ccc(-c2nn(C)c3sc(C(=O)N4CCN(c5cc(Cl)ccc5C)CC4)cc23)cc1OC`, the Potency was “inactive”.
